# Measurements: PubChem BioAssay AID1508623 (National Center for Advancing Translational Sciences (NCATS), 2021)
# The campaign covered roughly 48,000 compounds. About 450 (0.94%) were called active. Inconclusive results (about 19%) are left out. Calls follow the shape of the dose curve; as a rule, active = well fitted inhibition curve with a large enough effect; inconclusive = small, poorly fitted or top-dose-only effect; inactive = no such curve, though single readings can be large or run the other way. The list shows a part of the results.
# Test: Primary qHTS for Identification of Small Molecule Inhibitors of Huntingtin Promoter Activity; also: nearly all actives have a fitted effect of over 50% in size
# Details: HEK293 HTT promoter firefly luciferase reporter (activity 0% = vehicle and -100% = no light), 24 h; series mostly up to 57.5 µM; activity change, negative = inhibition: at the top concentration
# Outline: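 Quantitative HTS used concentration series of up to 57.5 uM final on HEK293 luciferase reporter cells, 24 h at 37 degrees C. Readout was Dual-Glo firefly luminescence.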
row,SMILES,"activity change, negative = inhibition"
1,COc1ccc(NC(=O)C2=CC(c3ccc4c(c3)OCO4)=NS(=O)(=O)N2C)cc1,inactive: -29.3%
2,COc1ccc(C)cc1NC(=O)C1COc2ccccc2C1 (stereo not drawn),inactive: -16.3%
3,Fc1ccc(-n2cc(-c3ccccc3)c3c(NCCc4ccccc4)ncnc32)cc1,inactive: -25%
4,CCc1ccc(NC(=O)Cn2c(=O)n(CCCCC(=O)NCCc3ccccc3)c(=O)c3ccccc32)cc1,inactive: -3.1%
5,COc1ccc(-c2noc(CC(=O)Nc3ccc(Br)cc3C)n2)cc1,inactive: -1.13%
6,CCOC(=O)c1c(NC(=O)COc2c(C)cc(Cl)cc2Cl)sc2c1CCCC2,inactive: -37.4%
7,COc1ccc(S(=O)(=O)NCC(c2ccc(N(C)C)cc2)N2CCCC2)cc1 (stereo not drawn),inactive: -5.02%
8,CCCCCCOC(=O)NC(=N)c1ccc(NCc2nc3cc(C(=O)N(CCC(=O)OCC)c4ccccn4)ccc3n2C)cc1,inactive: -20.2%
9,Cc1cc(C)c(/C=C/c2onc(C)c2S(=O)(=O)N2CCC(C(=O)N(C)Cc3ccccc3)CC2)c(C)c1,inactive: -27.5%
10,Cc1ccc(NC(=O)Nc2nnc(N(C)C3CCCCC3)s2)c(Cl)c1,inactive: -17.4%
11,Cc1ccc(-n2c(=O)c3c4c(sc3n(Cc3ccccc3C)c2=O)CCC4)cc1C,inactive: -14.6%
12,CC(=O)NC(Cc1ccccc1)C(=O)O (stereo not drawn),inactive: 0.0872%
13,O=C(Nc1ccc2c(c1)OCO2)c1cc(-c2ccc(Br)cc2)on1,inactive: -4.86% [at 11.5 µM]
14,Cc1ccccc1C(=O)Nc1nc2nc(-c3ccccc3)cc(=O)n2[nH]1,inactive: -16.6%
15,Clc1cccc(-n2cc(-c3ccccc3)c3c(N4CCCCC4)ncnc32)c1,inactive: -12.6%
16,COc1ccc(O)cc1,inactive: 7.54%
17,NCCc1cnc[nH]1,inactive
18,CCCCCCCCCCCCCCCCCCCCCCO,inactive: -1.38%
19,Cc1ccc(NC(=O)c2oc3ccc(S(=O)(=O)N4CCCCC4)cc3c2C)cc1Cl,inactive: -15.5%
20,CCN(Cc1ccccc1)C(=O)CCc1c(C)nc2c(c(C)nn2-c2ccc(C)c(C)c2)c1C,inactive: -1.02%
21,NS(=O)(=O)c1ccc(NC2=CC(=O)c3ccccc3C2=O)cc1,inactive: -10.2%
22,Cn1c(=O)c2c(-c3ccc(Br)cc3)n(CCc3ccccc3)cc2n(C)c1=O,inactive: -4.11%
23,COc1ccc(CN2CCCN(CC(=O)Nc3ccc4c(c3)OCCO4)S2(=O)=O)cc1,inactive: -2.75%
24,CCC(=O)Nc1ccc(O)cc1,inactive: -5.41%
25,Cc1ccc(C(=O)N2CCC(C(N)=O)CC2)cc1NC(=O)c1nsc2ccccc12,inactive: -0.0325%
26,COc1ccccc1CNC(=O)CCCn1c(=O)c2ccccc2n(Cc2ccc(C)cc2)c1=O,inactive: 0.0419%
27,CN1CCN(C2Cc3ccccc3Sc3ccc(Cl)cc32)CC1 (stereo not drawn),inactive: -22.4%
28,COc1ccc(N(CC(=O)NCCc2ccc(Cl)cc2)S(=O)(=O)c2c(C)nn(C)c2C)cc1,inactive: -23.6%
